# The list shows a part of the results.
# B1: Epa1-NP-mutant-E227G (Candida glabrata), Q6VBJ0 (protein)
# chain: MILNPALFLNKCVCIYTTLILLLLTNGGYATSSNDISLASKDPTTFPLGCSPDITTPKKGLSMELYSYDFRKKGSYPCWDAAYLDPNYPRTGYKSHRLLAKVDGVTGNINFYYHATKGCTPQLGHLPASYNYPKPLTMTNFTMLLYGYFRPKVTGFHTFTISADDLLFVNFGAGNAFDCCRRDSSADHFGNYQAYAIWGSKTAKDELTVHLDAGVYYPIRLFYNNRGYDGALSFTFKTESNENTVSDFSEYFFSLDDTEEGCPGLISYDSSCASVKTSKIIGIDYHTETPNENLVPITKTIYHLGIPCTGTTTTPLCGSGFYDPLANKCVTINTSSTSSVTKTTSHTTSKEVSFHSSISSQKTLIPKSIPSPYGPIKSQSIPTEMETSSEISSSEYAFSDVISTPSHSPYTKKHSSLNSSSYTSTVIHSLTSYSISQGIFSTSLSEQNITSKSSTDKFSTATSMSNNITQSSIIISQFSTNNENYTTTSMHTSSDKISTETLNNSISTTTSILFSNSSTILKNNTTIISSDKDTHYHPVNPTIVCSTNKTEIICASITQPSISNSNNHWSSSVLKFNSTTVRSTLPSSAGSNETSINVPFSSSTESNTSTSSTSTSNSKMVRSTLPSSAGSNETSISVPFSSSTESNTSTSSTSTSNSKMVRSTLPSSAGSNETSINVPFSSSTESNTSTSSTSTSNSKTVRSTPFSSAGIIMTSLSQRNNKSASSYASSNSKCYNTADSCRKVHSTPSYLLTSSYTSEGVDYDCSLVSTKLKINDTNCVNNKHTTKSCLKTSVTTTIPTLEIKTARKSSSNTIGLHSYPTSSPNKSISSAPIIGYISSFKTIKTASPSYQTSDLTTITTITSLNNPGSTAVENTHESNDKSRKTSSNDISSKHSVIKETKDAVESSNKSHQTNTLKCSSIIIASSSHNSYESLGGTTLTLTLSKVYSPQNNDTLPFLEISEVNPSRTVLPESSKMMQYLTSTEERNKTARNTIATNIVSISTFHFEGEGNAIRMGYTQLLLMLIGIIVMNIGT
# Assays:
# Test in all cases: glycan array binding signal (z-score within array); higher = stronger binding
# Conditions in all cases: glycan notation: IUPAC condensed, linker removed; mutation: E227G
# [1] = biological target: GlcNAc(b1-3)Gal(b1-4)GlcNAc(b1-3)Gal(b1-4)GlcNAc(b1-3)Gal(b1-4)GlcNAc(b1-3)Gal(b1-4)GlcNAc(b1-2)[GlcNAc(b1-3)Gal(b1-4)GlcNAc(b1-3)Gal(b1-4)GlcNAc(b1-3)Gal(b1-4)GlcNAc(b1-3)Gal(b1-4)GlcNAc(b1-6)]Man(a1-6)[GlcNAc(b1-3)Gal(b1-4)GlcNAc(b1-3)Gal(b1-4)GlcNAc(b1-3)Gal(b1-4)GlcNAc(b1-3)Gal(b1-4)GlcNAc(b1-2)Man(a1-3)]Man(b1-4)GlcNAc(b1-4)[Fuc(a1-6)]GlcNAc
# Method in brief: (§1)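 Negative Z-scores can be read as non-binding. The Z-score is calculated within each array and then averaged across arrays of one protein sequence at different concentrations or buffers and across linkers. Arrays, 3228 in all, were curated from the Consortium for Functional Glycomics database and kept only where the protein sequence was available.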
# [2] = biological target: GlcNAc(b1-3)Gal(b1-4)GlcNAc(b1-3)Gal(b1-4)GlcNAc(b1-3)GalNAc
# Method in brief: as §1
# [3] = biological target: GlcNAc(b1-3)Gal(b1-4)GlcNAc(b1-3)GalNAc
# Method in brief: as §1
# [4] = biological target: GlcNAc(b1-3)Gal(b1-4)GlcNAc(b1-3)[GlcNAc(b1-3)Gal(b1-4)GlcNAc(b1-3)]GalNAc
# Method in brief: as §1
# [5] = biological target: GlcNAc(b1-3)Gal(b1-4)GlcNAc(b1-6)[Gal(b1-3)]GalNAc
# Method in brief: as §1
# [6] = biological target: GlcNAc(b1-3)Gal(b1-4)GlcNAc(b1-6)[GlcNAc(b1-3)Gal(b1-3)]GalNAc
# Method in brief: as §1
# [7] = biological target: GlcNAc(b1-3)Gal(b1-4)GlcNAc(b1-6)[GlcNAc(b1-3)]Gal(b1-4)GlcNAc
# Method in brief: as §1
# GlcNAc(b1-3)GalNAc = biological target: GlcNAc(b1-3)GalNAc
# Method in brief: as §1
# GlcNAc(b1-3)Man = biological target: GlcNAc(b1-3)Man
# Method in brief: as §1
# [8] = biological target: GlcNAc(b1-3)[GlcNAc(b1-4)][GlcNAc(b1-6)]GlcNAc
# Method in brief: as §1
# [9] = biological target: GlcNAc(b1-3)[GlcNAc(b1-6)]Gal(b1-4)GlcNAc
# Method in brief: as §1
# [10] = biological target: GlcNAc(b1-3)[GlcNAc(b1-6)]GalNAc
# Method in brief: as §1
# [11] = biological target: GlcNAc(b1-4)Gal(b1-4)GlcNAc
# Method in brief: as §1
# GlcNAc(b1-4)GlcNAc = biological target: GlcNAc(b1-4)GlcNAc
# Method in brief: as §1
# [12] = biological target: GlcNAc(b1-4)GlcNAc(b1-4)GlcNAc
# Method in brief: as §1
# [13] = biological target: GlcNAc(b1-4)GlcNAc(b1-4)GlcNAc(b1-4)GlcNAc(b1-4)GlcNAc
# Method in brief: as §1
# [14] = biological target: GlcNAc(b1-4)GlcNAc(b1-4)GlcNAc(b1-4)GlcNAc(b1-4)GlcNAc(b1-4)GlcNAc
# Method in brief: as §1
# [15] = biological target: GlcNAc(b1-4)[GlcNAc(b1-6)]GalNAc
# Method in brief: as §1
# [16] = biological target: GlcNAc(b1-6)Gal(b1-4)GlcNAc
# Method in brief: as §1
# GlcNAc(b1-6)GalNAc = biological target: GlcNAc(b1-6)GalNAc
# Method in brief: as §1
# [17] = biological target: GlcNAc6S(b1-3)Gal(b1-4)GlcNAc
# Method in brief: as §1
# Kdn(a2-3)Gal(b1-3)GalNAc = biological target: Kdn(a2-3)Gal(b1-3)GalNAc
# Method in brief: as §1
# Kdn(a2-3)Gal(b1-3)GlcNAc = biological target: Kdn(a2-3)Gal(b1-3)GlcNAc
# Method in brief: as §1
# Kdn(a2-3)Gal(b1-4)Glc = biological target: Kdn(a2-3)Gal(b1-4)Glc
# Method in brief: as §1
# Kdn(a2-3)Gal(b1-4)GlcNAc = biological target: Kdn(a2-3)Gal(b1-4)GlcNAc
# Method in brief: as §1
# [18] = biological target: Kdn(a2-3)Gal(b1-4)[Fuc(a1-3)]GlcNAc
# Method in brief: as §1
# Kdn(a2-6)Gal(b1-4)GlcNAc = biological target: Kdn(a2-6)Gal(b1-4)GlcNAc
# Method in brief: as §1
# [19] = biological target: Man(a1-2)Man(a1-2)Man(a1-3)Man
# Method in brief: as §1
# [20] = biological target: Man(a1-2)Man(a1-2)Man(a1-6)[Man(a1-3)]Man
# Method in brief: as §1
# Man(a1-2)Man(a1-3)Man = biological target: Man(a1-2)Man(a1-3)Man
# Method in brief: as §1
binder,measurement,setting,value
B1,glycan array binding signal (z-score),[1],0.017
same,glycan array binding signal (z-score),[2],-0.04
same,glycan array binding signal (z-score),[3],-0.16
same,glycan array binding signal (z-score),[4],-0.019
same,glycan array binding signal (z-score),[5],-0.16
same,glycan array binding signal (z-score),[6],-0.182
same,glycan array binding signal (z-score),[7],-0.203
same,glycan array binding signal (z-score),GlcNAc(b1-3)GalNAc,-0.223
same,glycan array binding signal (z-score),GlcNAc(b1-3)Man,-0.146
same,glycan array binding signal (z-score),[8],-0.244
same,glycan array binding signal (z-score),[9],-0.101
same,glycan array binding signal (z-score),[10],-0.133
same,glycan array binding signal (z-score),[11],-0.157
same,glycan array binding signal (z-score),GlcNAc(b1-4)GlcNAc,-0.168
same,glycan array binding signal (z-score),[12],-0.161
same,glycan array binding signal (z-score),[13],-0.177
same,glycan array binding signal (z-score),[14],-0.273
same,glycan array binding signal (z-score),[15],-0.137
same,glycan array binding signal (z-score),[16],-0.168
same,glycan array binding signal (z-score),GlcNAc(b1-6)GalNAc,-0.071
same,glycan array binding signal (z-score),[17],-0.129
same,glycan array binding signal (z-score),Kdn(a2-3)Gal(b1-3)GalNAc,-0.163
same,glycan array binding signal (z-score),Kdn(a2-3)Gal(b1-3)GlcNAc,-0.106
same,glycan array binding signal (z-score),Kdn(a2-3)Gal(b1-4)Glc,-0.2
same,glycan array binding signal (z-score),Kdn(a2-3)Gal(b1-4)GlcNAc,-0.116
same,glycan array binding signal (z-score),[18],-0.097
same,glycan array binding signal (z-score),Kdn(a2-6)Gal(b1-4)GlcNAc,-0.132
same,glycan array binding signal (z-score),[19],-0.219
same,glycan array binding signal (z-score),[20],0.039
same,glycan array binding signal (z-score),Man(a1-2)Man(a1-3)Man,-0.146

# Reference: the supplement of paper PMC8728848
